# Measured values reported in the supplement of paper PMC8728848.
# This is one part of the list.
# B1: PX9937F-bfa-516-16-516 (Bacteroides fragilis) (protein)
# chain: LDIDPTSSIADSNYWKTEAQFSTFNVGLHALLRECSFNFFLLGEPRADIYGDVPFGGEATQGMERLPFNTINKENTGISNFAGMYKVINQINLMIAKTKETTVLSEAGKNYYLGEAYGMRAYLYFHLLRSWGDVILYLDYTNGASLDLSNLSKAASPAEEVMKQIKEDITASEKGFGSDYSFKYGRYYWSMAATQMLKGEVYLWSGRQMGGGTADYTTAKTALQSIVSNANVSLQDDFSKVFAYNNKDNSEIIFSIRNAKDEYNMWDDRFRQNLVPQQAYMTSTYCNKEGVSFKDLPEGQLNGLIRLQIRYDLYNKAFRDGDTRKDASMTAVYQKQQDGTVKYIAPFCNKYQGVLLDGASQRSFLNDYPIYRYADCLLLLAEAKALLGEDPTAEINQVRERAYGKEFFEANKATLAYPNDKGDFYTDNKYMSGDEDPLEAILKERMREFMFEGKRWYDLRLLGADYVTKRTSAVATRLLWPINESVLTDNPALKQTPGYQN
# How the values were obtained:
# Experiment in all cases: glycan array binding signal (z-score within array); higher = stronger binding
# Settings in all cases: glycan notation: IUPAC condensed, linker removed
# Gal(b1-4)Glc = molecular target: Gal(b1-4)Glc
# Method in brief: (§1)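 Glycan array binding is given as a within-array Z-score, which can be read as non-binding when negative. The arrays, 3228 of them, came from the Consortium for Functional Glycomics database and were retained only where the protein sequence was available. Z-scores were averaged across arrays of the same protein sequence at different concentrations or buffers and across linkers.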
# Gal(b1-4)Glc6S = molecular target: Gal(b1-4)Glc6S
# Method in brief: as §1
# Gal(b1-4)GlcNAc = molecular target: Gal(b1-4)GlcNAc
# Method in brief: as §1
# [1] = molecular target: Gal(b1-4)GlcNAc(a1-6)Gal(b1-4)GlcNAc
# Method in brief: as §1
# Gal(b1-4)GlcNAc(b1-2)Man = molecular target: Gal(b1-4)GlcNAc(b1-2)Man
# Method in brief: as §1
# [2] = molecular target: Gal(b1-4)GlcNAc(b1-2)Man(a1-3)Man(b1-4)GlcNAc(b1-4)GlcNAc
# Method in brief: as §1
# [3] = molecular target: Gal(b1-4)GlcNAc(b1-2)Man(a1-3)[Gal(b1-4)GlcNAc(b1-2)Man(a1-6)]Man(b1-4)GlcNAc(b1-4)GlcNAc
# Method in brief: as §1
# [4] = molecular target: Gal(b1-4)GlcNAc(b1-2)Man(a1-3)[Gal(b1-4)GlcNAc(b1-2)Man(a1-6)]Man(b1-4)GlcNAc(b1-4)[Fuc(a1-6)]GlcNAc
# Method in brief: as §1
# [5] = molecular target: Gal(b1-4)GlcNAc(b1-2)Man(a1-3)[Gal(b1-4)GlcNAc(b1-2)Man(a1-6)][Gal(b1-4)GlcNAc(b1-4)]Man(b1-4)GlcNAc(b1-4)[Fuc(a1-6)]GlcNAc
# Method in brief: as §1
# [6] = molecular target: Gal(b1-4)GlcNAc(b1-2)Man(a1-3)[Gal(b1-4)GlcNAc(b1-2)Man(a1-6)][GlcNAc(b1-4)]Man(b1-4)GlcNAc(b1-4)[Fuc(a1-6)]GlcNAc
# Method in brief: as §1
# [7] = molecular target: Gal(b1-4)GlcNAc(b1-2)Man(a1-3)[GlcNAc(b1-2)Man(a1-6)]Man(b1-4)GlcNAc(b1-4)GlcNAc
# Method in brief: as §1
# [8] = molecular target: Gal(b1-4)GlcNAc(b1-2)Man(a1-3)[GlcNAc(b1-4)][Gal(b1-4)GlcNAc(b1-2)Man(a1-6)]Man(b1-4)GlcNAc(b1-4)GlcNAc
# Method in brief: as §1
# [9] = molecular target: Gal(b1-4)GlcNAc(b1-2)Man(a1-3)[Man(a1-6)]Man(b1-4)GlcNAc(b1-4)GlcNAc
# Method in brief: as §1
# [10] = molecular target: Gal(b1-4)GlcNAc(b1-2)Man(a1-6)Man(b1-4)GlcNAc(b1-4)GlcNAc
# Method in brief: as §1
# [11] = molecular target: Gal(b1-4)GlcNAc(b1-2)Man(a1-6)[GlcNAc(b1-2)Man(a1-3)]Man(b1-4)GlcNAc(b1-4)GlcNAc
# Method in brief: as §1
# [12] = molecular target: Gal(b1-4)GlcNAc(b1-2)Man(a1-6)[Man(a1-3)]Man(b1-4)GlcNAc(b1-4)GlcNAc
# Method in brief: as §1
# [13] = molecular target: Gal(b1-4)GlcNAc(b1-2)[Gal(b1-4)GlcNAc(b1-4)]Man(a1-3)[Gal(b1-4)GlcNAc(b1-2)Man(a1-6)]Man(b1-4)GlcNAc(b1-4)GlcNAc
# Method in brief: as §1
# [14] = molecular target: Gal(b1-4)GlcNAc(b1-2)[Gal(b1-4)GlcNAc(b1-4)]Man(a1-3)[Gal(b1-4)GlcNAc(b1-2)[Gal(b1-4)GlcNAc(b1-6)]Man(a1-6)]Man(b1-4)GlcNAc(b1-4)GlcNAc
# Method in brief: as §1
# [15] = molecular target: Gal(b1-4)GlcNAc(b1-2)[Gal(b1-4)GlcNAc(b1-4)]Man(a1-3)[GlcNAc(b1-4)][Gal(b1-4)GlcNAc(b1-2)Man(a1-6)]Man(b1-4)GlcNAc(b1-4)GlcNAc
# Method in brief: as §1
# [16] = molecular target: Gal(b1-4)GlcNAc(b1-2)[Gal(b1-4)GlcNAc(b1-4)]Man(a1-3)[GlcNAc(b1-4)][Gal(b1-4)GlcNAc(b1-2)[Gal(b1-4)GlcNAc(b1-6)]Man(a1-6)]Man(b1-4)GlcNAc(b1-4)GlcNAc
# Method in brief: as §1
# [17] = molecular target: Gal(b1-4)GlcNAc(b1-2)[Gal(b1-4)GlcNAc(b1-6)]Man(a1-6)[Gal(b1-4)GlcNAc(b1-2)Man(a1-3)]Man(b1-4)GlcNAc(b1-4)GlcNAc
# Method in brief: as §1
# [18] = molecular target: Gal(b1-4)GlcNAc(b1-2)[Gal(b1-4)GlcNAc(b1-6)]Man(a1-6)[Gal(b1-4)GlcNAc(b1-2)Man(a1-3)]Man(b1-4)GlcNAc(b1-4)[Fuc(a1-6)]GlcNAc
# Method in brief: as §1
# [19] = molecular target: Gal(b1-4)GlcNAc(b1-2)[Gal(b1-4)GlcNAc(b1-6)]Man(a1-6)[GlcNAc(b1-4)][Gal(b1-4)GlcNAc(b1-2)Man(a1-3)]Man(b1-4)GlcNAc(b1-4)GlcNAc
# Method in brief: as §1
# [20] = molecular target: Gal(b1-4)GlcNAc(b1-2)[Gal(b1-4)GlcNAc(b1-6)]Man(a1-6)[GlcNAc(b1-4)][Gal(b1-4)GlcNAc(b1-2)[Gal(b1-4)GlcNAc(b1-4)]Man(a1-3)]Man(b1-4)GlcNAc(b1-4)[Fuc(a1-6)]GlcNAc
# Method in brief: as §1
# [21] = molecular target: Gal(b1-4)GlcNAc(b1-3)Gal(b1-3)GalNAc
# Method in brief: as §1
# [22] = molecular target: Gal(b1-4)GlcNAc(b1-3)Gal(b1-3)GlcNAc
# Method in brief: as §1
# [23] = molecular target: Gal(b1-4)GlcNAc(b1-3)Gal(b1-4)Glc
# Method in brief: as §1
# [24] = molecular target: Gal(b1-4)GlcNAc(b1-3)Gal(b1-4)GlcNAc
# Method in brief: as §1
# [25] = molecular target: Gal(b1-4)GlcNAc(b1-3)Gal(b1-4)GlcNAc(b1-2)Man(a1-3)[Gal(b1-4)GlcNAc(b1-3)Gal(b1-4)GlcNAc(b1-2)Man(a1-6)]Man(b1-4)GlcNAc(b1-4)GlcNAc
# Method in brief: as §1
# [26] = molecular target: Gal(b1-4)GlcNAc(b1-3)Gal(b1-4)GlcNAc(b1-2)Man(a1-3)[Gal(b1-4)GlcNAc(b1-3)Gal(b1-4)GlcNAc(b1-2)Man(a1-6)]Man(b1-4)GlcNAc(b1-4)[Fuc(a1-6)]GlcNAc
# Method in brief: as §1
# [27] = molecular target: Gal(b1-4)GlcNAc(b1-3)Gal(b1-4)GlcNAc(b1-2)[Gal(b1-4)GlcNAc(b1-3)Gal(b1-4)GlcNAc(b1-6)]Man(a1-6)[Gal(b1-4)GlcNAc(b1-3)Gal(b1-4)GlcNAc(b1-2)Man(a1-3)]Man(b1-4)GlcNAc(b1-4)GlcNAc
# Method in brief: as §1
# [28] = molecular target: Gal(b1-4)GlcNAc(b1-3)Gal(b1-4)GlcNAc(b1-2)[Gal(b1-4)GlcNAc(b1-3)Gal(b1-4)GlcNAc(b1-6)]Man(a1-6)[Gal(b1-4)GlcNAc(b1-3)Gal(b1-4)GlcNAc(b1-2)Man(a1-3)]Man(b1-4)GlcNAc(b1-4)[Fuc(a1-6)]GlcNAc
# Method in brief: as §1
# [29] = molecular target: Gal(b1-4)GlcNAc(b1-3)Gal(b1-4)GlcNAc(b1-3)Gal(b1-4)GlcNAc
# Method in brief: as §1
# [30] = molecular target: Gal(b1-4)GlcNAc(b1-3)Gal(b1-4)GlcNAc(b1-3)Gal(b1-4)GlcNAc(b1-2)Man(a1-3)[Gal(b1-4)GlcNAc(b1-3)Gal(b1-4)GlcNAc(b1-3)Gal(b1-4)GlcNAc(b1-2)Man(a1-6)]Man(b1-4)GlcNAc(b1-4)GlcNAc
# Method in brief: as §1
# [31] = molecular target: Gal(b1-4)GlcNAc(b1-3)Gal(b1-4)GlcNAc(b1-3)Gal(b1-4)GlcNAc(b1-2)Man(a1-3)[Gal(b1-4)GlcNAc(b1-3)Gal(b1-4)GlcNAc(b1-3)Gal(b1-4)GlcNAc(b1-2)Man(a1-6)]Man(b1-4)GlcNAc(b1-4)[Fuc(a1-6)]GlcNAc
# Method in brief: as §1
# [32] = molecular target: Gal(b1-4)GlcNAc(b1-3)Gal(b1-4)GlcNAc(b1-3)Gal(b1-4)GlcNAc(b1-2)[Gal(b1-4)GlcNAc(b1-3)Gal(b1-4)GlcNAc(b1-3)Gal(b1-4)GlcNAc(b1-6)]Man(a1-6)[Gal(b1-4)GlcNAc(b1-3)Gal(b1-4)GlcNAc(b1-3)Gal(b1-4)GlcNAc(b1-2)Man(a1-3)]Man(b1-4)GlcNAc(b1-4)[Fuc(a1-6)]GlcNAc
# Method in brief: as §1
# [33] = molecular target: Gal(b1-4)GlcNAc(b1-3)Gal(b1-4)GlcNAc(b1-3)Gal(b1-4)GlcNAc(b1-3)Gal(b1-4)GlcNAc(b1-2)Man(a1-3)[Gal(b1-4)GlcNAc(b1-3)Gal(b1-4)GlcNAc(b1-3)Gal(b1-4)GlcNAc(b1-3)Gal(b1-4)GlcNAc(b1-2)Man(a1-6)]Man(b1-4)GlcNAc(b1-4)GlcNAc
# Method in brief: as §1
binder,measurement,setting,value
B1,glycan array binding signal (z-score),Gal(b1-4)Glc,-0.221
same,glycan array binding signal (z-score),Gal(b1-4)Glc6S,0.112
same,glycan array binding signal (z-score),Gal(b1-4)GlcNAc,0.003
same,glycan array binding signal (z-score),[1],-0.238
same,glycan array binding signal (z-score),Gal(b1-4)GlcNAc(b1-2)Man,-0.006
same,glycan array binding signal (z-score),[2],-0.097
same,glycan array binding signal (z-score),[3],-0.049
same,glycan array binding signal (z-score),[4],0.69
same,glycan array binding signal (z-score),[5],-0.081
same,glycan array binding signal (z-score),[6],-0.376
same,glycan array binding signal (z-score),[7],-0.116
same,glycan array binding signal (z-score),[8],-0.256
same,glycan array binding signal (z-score),[9],-0.304
same,glycan array binding signal (z-score),[10],0.186
same,glycan array binding signal (z-score),[11],-0.357
same,glycan array binding signal (z-score),[12],0.041
same,glycan array binding signal (z-score),[13],0.394
same,glycan array binding signal (z-score),[14],-0.256
same,glycan array binding signal (z-score),[15],-0.31
same,glycan array binding signal (z-score),[16],0.064
same,glycan array binding signal (z-score),[17],-0.096
same,glycan array binding signal (z-score),[18],-0.292
same,glycan array binding signal (z-score),[19],-0.338
same,glycan array binding signal (z-score),[20],-0.168
same,glycan array binding signal (z-score),[21],-0.111
same,glycan array binding signal (z-score),[22],-0.284
same,glycan array binding signal (z-score),[23],-0.069
same,glycan array binding signal (z-score),[24],-0.274
same,glycan array binding signal (z-score),[25],0.196
same,glycan array binding signal (z-score),[26],0.176
same,glycan array binding signal (z-score),[27],0.059
same,glycan array binding signal (z-score),[28],0.098
same,glycan array binding signal (z-score),[29],-0.356
same,glycan array binding signal (z-score),[30],0.12
same,glycan array binding signal (z-score),[31],-0.286
same,glycan array binding signal (z-score),[32],4.38
same,glycan array binding signal (z-score),[33],-0.062
